From the antibiotic and cytotoxicity screens of Wong et al. (2023)
The list shows a part of the results.

Assays:
[1] = tested on: HSkMC (human skeletal muscle cells); assay: cytotoxicity call (relative viability < 0.9); details: 10 µM
[2] = tested on: HepG2; assay: cytotoxicity call (relative viability < 0.9); details: 10 µM
[3] = tested on: S. aureus RN4220; assay: growth inhibition call (relative growth <= 0.2); details: 50 µM

C[C@H](CO)N1C[C@H](C)[C@H](CN(C)Cc2cncnc2)Oc2ncc(C#C[C@@H](C)O)cc2C1=O
inactive: cytotoxicity call [1] | cytotoxicity call [2] | growth inhibition call [3]

COCCNC(=O)C[C@@H]1CC[C@H]2[C@@H](COC[C@H](O)CN2S(=O)(=O)c2ccccc2C)O1
inactive: cytotoxicity call [1] | cytotoxicity call [2] | growth inhibition call [3]

Cc1noc(C)c1NC(=O)Nc1ccc2c(c1)C(=O)N([C@@H](C)CO)C[C@@H](C)[C@@H](CN(C)Cc1ccc(C(F)(F)F)cc1)OCCCC[C@@H](C)O2
inactive: cytotoxicity call [1] | cytotoxicity call [2] | growth inhibition call [3]

CN(C)CCCNC(=O)C[C@@H]1CC[C@@H]2[C@H](COc3ccc(NC(=O)NC4CCCC4)cc3C(=O)N2C)O1
inactive: cytotoxicity call [1] | cytotoxicity call [2] | growth inhibition call [3]

CCCN(C)C[C@H]1OCCCC[C@H](C)Oc2ccc(NS(=O)(=O)c3ccc(Cl)cc3)cc2C(=O)N([C@H](C)CO)C[C@H]1C
inactive: cytotoxicity call [1] | cytotoxicity call [2] | growth inhibition call [3]

O=C(NO)c1ccc(C(=O)N/N=C/[C@H](O)[C@@H](O)[C@H](O)[C@H](O)CO[C@H]2O[C@H](CO)[C@H](O)[C@H](O)[C@H]2O)cc1
inactive: cytotoxicity call [1] | cytotoxicity call [2] | growth inhibition call [3]

Cc1ccccc1S(=O)(=O)N1C[C@H](O)COC[C@H]2O[C@H](CC(=O)NCCc3ccccc3)CC[C@@H]21
inactive: cytotoxicity call [1] | cytotoxicity call [2] | growth inhibition call [3]

Cc1ccc(S(=O)(=O)N[C@H]2C=C[C@H](CC(=O)NCCN3CCCCC3)O[C@@H]2CO)cc1
inactive: cytotoxicity call [1] | cytotoxicity call [2] | growth inhibition call [3]

NCCCC(O)(P(=O)(O)O)P(=O)(O)O.O.O.O.[Na+]
inactive: cytotoxicity call [1] | cytotoxicity call [2] | growth inhibition call [3]
